# Data reported in the supplement of paper PMC8728848.
# Some of the results follow.
# Columns and labels:
# Assay in all cases: glycan array binding signal (z-score within array); higher = stronger binding
# Conditions in all cases: glycan notation: IUPAC condensed, linker removed
# [1] = target: Neu5Ac(a2-6)GlcNAc(b1-4)GlcNAc(b1-4)GlcNAc
# Method in brief: (§1)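 Glycan array data were curated from 3228 arrays in the Consortium for Functional Glycomics database and kept only where the protein sequence was available. Glycan names were converted to IUPAC-condensed notation, and columns mapping to the same glycan were averaged. The binding signal is a within-array Z-score, averaged across arrays of the same protein sequence at different concentrations or buffers and across linkers. Negative Z-scores can be read as non-binding.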
# Neu5Ac(a2-8)Neu5Ac = target: Neu5Ac(a2-8)Neu5Ac
# Method in brief: as §1
# [2] = target: Neu5Ac(a2-8)Neu5Ac(a2-3)Gal(b1-3)GalNAc(b1-4)[Neu5Ac(a2-3)]Gal(b1-4)Glc
# Method in brief: as §1
# [3] = target: Neu5Ac(a2-8)Neu5Ac(a2-3)Gal(b1-3)GalNAc(b1-4)[Neu5Ac(a2-8)Neu5Ac(a2-3)]Gal(b1-4)Glc
# Method in brief: as §1
# [4] = target: Neu5Ac(a2-8)Neu5Ac(a2-3)Gal(b1-4)Glc
# Method in brief: as §1
# [5] = target: Neu5Ac(a2-8)Neu5Ac(a2-3)Gal(b1-4)GlcNAc
# Method in brief: as §1
# [6] = target: Neu5Ac(a2-8)Neu5Ac(a2-3)[Gal(b1-3)GalNAc(b1-4)]Gal(b1-4)Glc
# Method in brief: as §1
# [7] = target: Neu5Ac(a2-8)Neu5Ac(a2-3)[GalNAc(b1-4)]Gal(b1-4)Glc
# Method in brief: as §1
# [8] = target: Neu5Ac(a2-8)Neu5Ac(a2-8)Neu5Ac
# Method in brief: as §1
# [9] = target: Neu5Ac(a2-8)Neu5Ac(a2-8)Neu5Ac(a2-3)Gal(b1-4)Glc
# Method in brief: as §1
# [10] = target: Neu5Ac(a2-8)Neu5Ac(a2-8)Neu5Ac(a2-3)[Gal(b1-3)GalNAc(b1-4)]Gal(b1-4)Glc
# Method in brief: as §1
# [11] = target: Neu5Ac(a2-8)Neu5Ac(a2-8)Neu5Ac(a2-3)[GalNAc(b1-4)]Gal(b1-4)Glc
# Method in brief: as §1
# [12] = target: Neu5Ac(a2-8)Neu5Ac(a2-8)Neu5Ac(a2-8)Neu5Ac(a2-3)[GalNAc(b1-4)]Gal(b1-4)Glc
# Method in brief: as §1
# [13] = target: Neu5Ac(a2-8)Neu5Gc(a2-3)Gal(b1-4)GlcNAc
# Method in brief: as §1
# [14] = target: Neu5Ac(b2-6)Gal(b1-4)GlcNAc
# Method in brief: as §1
# Neu5Ac(b2-6)GalNAc = target: Neu5Ac(b2-6)GalNAc
# Method in brief: as §1
# [15] = target: Neu5Ac9Ac(a2-3)Gal(b1-3)GlcNAc
# Method in brief: as §1
# [16] = target: Neu5Ac9Ac(a2-3)Gal(b1-4)GlcNAc
# Method in brief: as §1
# [17] = target: Neu5Ac9Ac(a2-6)Gal(b1-4)GlcNAc
# Method in brief: as §1
# [18] = target: Neu5Gc(a2-3)Gal(b1-3)GlcNAc
# Method in brief: as §1
# [19] = target: Neu5Gc(a2-3)Gal(b1-3)[Fuc(a1-4)]GlcNAc
# Method in brief: as §1
# Neu5Gc(a2-3)Gal(b1-4)Glc = target: Neu5Gc(a2-3)Gal(b1-4)Glc
# Method in brief: as §1
# [20] = target: Neu5Gc(a2-3)Gal(b1-4)GlcNAc
# Method in brief: as §1
# [21] = target: Neu5Gc(a2-3)Gal(b1-4)GlcNAc(b1-3)Gal(b1-4)GlcNAc(b1-2)Man(a1-3)[Neu5Gc(a2-3)Gal(b1-4)GlcNAc(b1-3)Gal(b1-4)GlcNAc(b1-2)Man(a1-6)]Man(b1-4)GlcNAc(b1-4)GlcNAc
# Method in brief: as §1
# [22] = target: Neu5Gc(a2-3)Gal(b1-4)[Fuc(a1-3)]GlcNAc
# Method in brief: as §1
# [23] = target: Neu5Gc(a2-6)Gal(b1-4)GlcNAc
# Method in brief: as §1
# Neu5Gc(a2-6)GalNAc = target: Neu5Gc(a2-6)GalNAc
# Method in brief: as §1
# [24] = target: Neu5Gc(a2-8)Neu5Ac(a2-3)Gal(b1-4)GlcNAc
# Method in brief: as §1
# [25] = target: Neu5Gc(a2-8)Neu5Gc(a2-3)Gal(b1-4)GlcNAc
# Method in brief: as §1
# [26] = target: Neu5Gc(a2-8)Neu5Gc(a2-3)Gal(b1-4)GlcNAc(b1-3)Gal(b1-4)GlcNAc
# Method in brief: as §1
# [27] = target: Neu5Gc(a2-8)Neu5Gc(a2-6)Gal(b1-4)GlcNAc
# Method in brief: as §1
# [28] = target: Neu5Gc(b2-6)Gal(b1-4)GlcNAc
# Method in brief: as §1
binder,measurement,setting,value
"CC1G-11630 (Coprinopsis cinerea), A8P462 (protein) MTTEAKIKLKAVVYWELVFDYDNSSNTGEITQSYTVKISQTSTRSTFASEVSTTTIDTLTKNNQEVDVGASYGAISANVSASWEHSEEVNNMLEKTTQTSTEDTYTVETEETRSYTIGPGGMLSLFQKHFSGPGMHVAFDVFTTDLELAKERTEIDIDVDVEAIRFVREIRVVYTDIMSEAPGDHVREINGKNPDINYGFNGKFVWLVPEQTRKTAQALTNVEFVSQAESDDRYWDLAAGAGGSNRYLIPVYDTNNKDKIYELALWRSDSYITHDKVKAAGWSGTTGDINSGRGGTYLNLVWKTRHAY",glycan array binding signal (z-score),[1],-0.618
same,glycan array binding signal (z-score),Neu5Ac(a2-8)Neu5Ac,0.519
same,glycan array binding signal (z-score),[2],-0.228
same,glycan array binding signal (z-score),[3],-0.22
same,glycan array binding signal (z-score),[4],-0.62
same,glycan array binding signal (z-score),[5],-0.508
same,glycan array binding signal (z-score),[6],-0.386
same,glycan array binding signal (z-score),[7],0.069
same,glycan array binding signal (z-score),[8],0.018
same,glycan array binding signal (z-score),[9],-0.108
same,glycan array binding signal (z-score),[10],-0.205
same,glycan array binding signal (z-score),[11],-0.394
same,glycan array binding signal (z-score),[12],-0.33
same,glycan array binding signal (z-score),[13],-0.52
same,glycan array binding signal (z-score),[14],-0.248
same,glycan array binding signal (z-score),Neu5Ac(b2-6)GalNAc,-0.235
same,glycan array binding signal (z-score),[15],0.279
same,glycan array binding signal (z-score),[16],-0.202
same,glycan array binding signal (z-score),[17],-0.598
same,glycan array binding signal (z-score),[18],-0.487
same,glycan array binding signal (z-score),[19],-0.454
same,glycan array binding signal (z-score),Neu5Gc(a2-3)Gal(b1-4)Glc,-0.367
same,glycan array binding signal (z-score),[20],-0.457
same,glycan array binding signal (z-score),[21],0.099
same,glycan array binding signal (z-score),[22],-0.942
same,glycan array binding signal (z-score),[23],-0.519
same,glycan array binding signal (z-score),Neu5Gc(a2-6)GalNAc,-0.389
same,glycan array binding signal (z-score),[24],-0.687
same,glycan array binding signal (z-score),[25],-0.522
same,glycan array binding signal (z-score),[26],-0.517
same,glycan array binding signal (z-score),[27],-0.498
same,glycan array binding signal (z-score),[28],-0.389
